These results are taken from PubChem BioAssay AID1346428 (National Center for Advancing Translational Sciences (NCATS), 2018).

Several values for one entry are separate records, joined by “and”; a condition that tells them apart may be missing. Identical values can stand only once. About 1,200 (2.5%) of roughly 48,000 compounds were called active. Another 2% or so got no clear call; they are omitted.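 Rule for the calls: active = activation of at least 60% and not above a set upper limit (about 1 call in 100 departs from these limits); inconclusive = activation of 40% to 60%, or above that upper limit; inactive = activation under 40%.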 The list shows a part of the results.

The assay has as its target Probable G-protein coupled receptor 32 (Homo sapiens) (UniProt O75388). Description: qHTS for Agonists of Human Resolvin D1 Receptor DRV1. Note: 0% is about no effect. The note with it: CHO-K1 GPR32 beta-arrestin PathHunter luminescence, 90 min; at 76.9 µM; active compounds read high; zero percent set by DMSO-only wells. The procedure, abridged: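 Luminescent readout of beta-Gal complementation quantifies ligand-induced beta-arrestin association with GPR32 in CHO-K1 cells; 90 min compound incubation at 37 °C, detection 1 h at room temperature.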
Sequence of UniProt O75388 (O75388 whole entry, looked up): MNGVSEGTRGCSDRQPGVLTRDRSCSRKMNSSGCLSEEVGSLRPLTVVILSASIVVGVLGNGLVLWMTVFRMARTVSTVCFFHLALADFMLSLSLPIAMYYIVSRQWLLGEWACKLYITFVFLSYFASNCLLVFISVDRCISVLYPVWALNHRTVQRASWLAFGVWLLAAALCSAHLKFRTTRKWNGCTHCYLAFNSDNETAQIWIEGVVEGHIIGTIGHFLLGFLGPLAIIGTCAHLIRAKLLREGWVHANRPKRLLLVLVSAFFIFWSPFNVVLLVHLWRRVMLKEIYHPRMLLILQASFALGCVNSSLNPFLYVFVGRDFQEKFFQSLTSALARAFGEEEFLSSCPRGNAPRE
Regarding `COc1cccc(C(=O)NCCN2CCN(c3ccc(Cl)cc3)CC2)c1`, the activation was inactive: -0.119%.

Take `Cc1ccc(C)c(NC(=O)Nc2csc3c2CCCC3)c1`: the activation is inactive: -9.42%.

As to `COc1ccccc1NC(=O)Cn1c(=O)n(Cc2nc(-c3ccccc3)no2)c(=O)c2ccccc21`, the activation was inactive: 9.72%.

For the molecule `CCOc1ccc2nc(N3CCCC(C(=O)NCc4ccc(C)cc4)C3)sc2c1` (configuration not stated), the activation is inactive: -5.4%.

With `CC(C)NC(=O)C1CCN(C(=O)N2CC(C)Oc3ccccc32)CC1` (configuration not stated), the activation is inactive: -7.66%.

Regarding `CCC1=C(c2ccc(C)cc2)S(=O)(=O)N=C1N1CCC(C(=O)N2CCCCC2)CC1`, the activation is inactive: 5.37%.

As to `COc1ccc(NC(=O)Cn2cc(C(=O)c3cccs3)c3ccccc32)cc1`, the activation is inactive: -12%.

As to `O=C(COCc1cc(-c2cccs2)on1)Nc1cccc(O)c1`, the activation was inactive: -4.61%.

Consider `CCS(=O)(=O)NCCc1csc2nc(-c3ccc(C)cc3)nn12`, for which the activation was inactive: 1.26%.

Turning to `Cc1ccc(-n2cnc3cc(C(=O)NC4CCCCCC4)ccc32)cc1Cl`, the activation was inactive: -9.64%.

On to `Cc1cccc(-n2c(-c3ccco3)nc3c(cnn3-c3ccc(F)cc3)c2=O)c1`, for which the activation is inactive: 21.5%.

Consider `COC(=O)c1c(C)sc(-c2c(-c3ccc4c(c3)OCCO4)[nH]c3c2c(=O)[nH]c(=O)n3C)c1O`, for which the activation is inactive: -37.6%.

As to `COc1ccc(-c2nn(C)c3sc(C(=O)N4CCN(c5cccc(Cl)c5)CC4)cc23)cc1OC`, the activation was inactive: -16.1%.

For the molecule `CC1CCc2c(sc(NC(=O)c3cc(-c4ccc(Br)cc4)on3)c2C(N)=O)C1` (configuration not stated), the activation was inactive: 12.4%.

For `COc1ccc(NC(=O)C2CCN(S(=O)(=O)c3c(C)noc3/C=C/c3ccc(C)cc3)CC2)cc1Cl`, the activation is inactive: 15.6%.

With `COc1ccc(NC(=O)CN(C)S(=O)(=O)c2ccc3nc(C)sc3c2)cc1`, the activation is inactive: -10.5%.

For `COc1ccc(N2C(=O)CS(=O)(=O)C23C(=O)N(Cc2c(F)cccc2Cl)c2ccccc23)cc1` (configuration not stated), the activation is inactive: 10.7%.

As for `CC(C)CCNC(=O)c1cc(Sc2ccc(F)cc2F)nc2ccccc12`, the activation is inactive: -12.9%.

Turning to `COc1ccc(NC(=O)C2=C(C)Nc3ncnn3C2c2ccccn2)cc1` (configuration not stated), the activation was inactive: 2.35%.

On to `CCCCn1cc(S(=O)(=O)c2ccccc2)c(=O)c2cc(F)c(N3CCC(C)CC3)cc21`, for which the activation was inactive: -9.15%.

With `CCOC(=O)c1cnc2c(C)cc(C)cc2c1Nc1ccc(OCc2ccccc2)cc1`, the activation was inactive: 7.45%.

`CCOC(=O)C1=C(C(F)(F)F)Nc2ncnn2C1c1cccc(OC)c1OC` (configuration not stated): the activation was inactive: -2.56%.

Take `O=C(CN1CCN(CC(=O)Nc2ccccc2F)CC1)Nc1ccc(Cl)c(C(F)(F)F)c1`: the activation was inactive: 31%.

Consider `CCCOc1ccccc1-c1nc2n[nH]nc2c(=O)[nH]1`, for which the activation was inactive: 17.1% and inactive: 3.15%.

In the case of `CCOc1ccc(CNC(=O)CCc2cn(CC)c3ccccc23)cc1`, the activation is inactive: -13.7%.

Regarding `CC1=C(c2ccc(C)c(C)c2)S(=O)(=O)N=C1N1CCC(C(=O)N2CCCCC2)CC1`, the activation was inactive: 7.16%.

Consider `COc1cc(C(=O)Nc2ccc(OCc3cc(=O)n4cccc(C)c4n3)cc2)cc(OC)c1OC`, for which the activation is inactive: 27.9%.

For `O=C(NCCc1ccccc1)c1ccc(CSc2nc3ccncc3n2Cc2cccc(F)c2)cc1`, the activation was inactive: -21.7%.

For the molecule `CCc1ccc(NC(=O)C2CCN(S(=O)(=O)c3c(C)noc3/C=C\c3ccc(OC)cc3)CC2)cc1`, the activation is inactive: -22.1%.

With `CCCCOc1ccc(CN2C(=O)C(=O)c3cc(C)ccc32)cc1OC`, the activation was inactive: -70%.

As for `COc1ccccc1CNc1ccc(-c2nc(-c3cccc(C)c3)no2)cc1[N+](=O)[O-]`, the activation was inactive: -7.18%.

Turning to `CCN(CC)C(=O)c1sc2c(c1C)c(=O)n(CCc1ccccc1)c(=O)n2Cc1cccc(Cl)c1`, the activation was inactive: -49%.

Turning to `COc1ccc(-n2nc(C(=O)NCc3ccc(F)cc3)c3c4ccccc4n(C)c3c2=O)cc1`, the activation was inactive: -18.5%.

Take `CCOc1ccccc1N1CC(c2nc3ccccc3n2CCCCOc2cc(C)ccc2C)CC1=O` (configuration not stated): the activation is inactive: -8.64%.

On to `CN(C)c1ccc(CNC(=O)c2ccc3c(c2)N(C)C(=O)C2CCCCN32)cc1` (configuration not stated), for which the activation is inactive: 9.75%.

For `O=C(c1cnc(N2CCOCC2)c2ccccc12)N1CCN(c2ccccc2F)CC1`, the activation was inactive: -10%.

For the molecule `COc1ccccc1CNC(=O)c1ccc2c(c1)N(Cc1ccc(C)cc1)CCS2`, the activation was inactive: -17.6%.

Regarding `CCN(CC)S(=O)(=O)c1ccc2c(c1)N(CC(=O)NCC(C)c1ccccc1)C(=O)CO2` (configuration not stated), the activation is inactive: -26.9%.

Turning to `CCc1ccccc1NC(=O)CN1C(=O)COc2ccc(S(=O)(=O)N3CCCCCC3)cc21`, the activation was inactive: -6.99%.

For the molecule `Cc1ccc(-n2ncc3c(N4CCCCCC4)ncnc32)cc1C`, the activation is inactive: 21.9%.

For `CCn1cc(C(=O)N2CCN(c3ccccc3OC)CC2)c(=O)c2cc(S(=O)(=O)N3CCC(C)CC3)ccc21`, the activation is inactive: -9.84%.

As for `CC(C)Oc1ccc(CNC(=O)c2ccccc2NC(=O)c2nsc3ccccc23)cc1`, the activation is inactive: -14.1%.

With `CC(=O)Oc1cccc(C)c1`, the activation is inactive: 2.1%.

With `CNS(=O)(=O)c1cn(CC(=O)N2CCN(c3cccc(Cl)c3)CC2)cc1S(=O)(=O)NC`, the activation was inactive: 4.32%.

Consider `CCN(CC)C(=O)C1=CC(c2ccc3c(c2)OCO3)=NS(=O)(=O)N1C`, for which the activation is inactive: 6.04%.

Consider `Cc1ccc(NC(=O)CSc2nc3ccc(NC(=O)CCc4ccccc4)cc3s2)c(C)c1`, for which the activation is inactive: -24.5%.

As to `O=C(CCCCn1c(=O)c2ccccc2n(Cc2ccccc2F)c1=O)NCc1ccccc1Cl`, the activation is inactive: -3.2%.

For the molecule `CCC(Oc1ccccc1)C(=O)Nc1ccc(OCc2cc(=O)n3ccc(C)cc3n2)cc1` (configuration not stated), the activation was inactive: -4.22%.

Take `Cc1oc(-c2ccccc2F)nc1CSCC(=O)NCCc1ccccc1`: the activation is inactive: -2.52%.

Turning to `COC(=O)c1ccc(CN(Cc2ccc(OC)c(OC)c2)S(=O)(=O)c2cc(C(=O)Nc3cccc(C)c3)ccc2F)cc1`, the activation is inactive: -19.2%.

On to `O=S(=O)(NCCc1nnc2ccc(SCc3c(F)cccc3Cl)nn12)c1ccccc1`, for which the activation was inactive: -26.1%.

For the molecule `CCCCN(C(=O)CCn1c(=O)oc2ccccc21)c1ccccc1`, the activation is inactive: -7.07%.

With `COc1ccc(OCC(=O)N2CCN(C(=O)c3cccc(OC)c3OC)CC2)cc1`, the activation was inactive: 3.85%.

For the molecule `COc1cc(NC(=O)c2noc3c2CC(C(C)(C)C)CC3)cc(OC)c1OC` (configuration not stated), the activation was inactive: -0.301%.

As for `COCCn1c(C)cc(O)c(C(c2ccccc2Cl)N2CCN(c3ccccc3)CC2)c1=O` (configuration not stated), the activation was inactive: -8.26%.

For the molecule `CCN(CC)C(=O)c1sc2c(c1C)c(=O)n(Cc1ccccc1)c(=O)n2Cc1c(C)cc(C)cc1C`, the activation is inactive: -21.3%.

Consider `O=C(NCC(c1ccco1)S(=O)(=O)c1cccs1)c1c(F)cccc1F` (configuration not stated), for which the activation was inactive: -5.44%.

`CCOC(=O)c1ccc(NC(=O)c2c(NCc3ccc(OC)c(OC)c3OC)sc3c2CCC(C)C3)cc1` (configuration not stated): the activation was inactive: -9.82%.

For the molecule `O=C(NCC(c1cccnc1)N1CCc2ccccc21)c1cccc(F)c1` (configuration not stated), the activation is inactive: -29%.

On to `Cc1nn(-c2ccc(N3CCCC3)nn2)c(C)c1CCC(=O)N1CCN(c2ccc(F)cc2)CC1`, for which the activation is inactive: -11.7%.

With `Cc1ccc2[nH]c(C)c(CCNC(=O)c3cc4cc(Br)ccc4oc3=O)c2c1`, the activation is inactive: -17%.

As for `Cc1cccc(NC(=O)Cn2c(=O)n(CC3CCC(C(=O)NCCc4ccccc4)CC3)c(=O)c3ccccc32)c1C` (configuration not stated), the activation was inactive: 5.35%.

On to `Cc1ccc(NS(=O)(=O)c2ccc3[nH]c4c(c3c2)CCCCCC4)cc1C`, for which the activation is inactive: -1.63%.

Regarding `CCOC(=O)c1cc(S(=O)(=O)N(C)c2ccccc2)[nH]n1`, the activation was inactive: 1.69%.

Regarding `Cc1ccc2nc(N)[nH]c(=O)c2c1Sc1ccncc1`, the activation is inactive: 9.3%.

With `CCOc1ccc(S(=O)(=O)Nc2ccc3c(c2)CCCN3S(=O)(=O)c2ccc(C)cc2)cc1`, the activation was inactive: -19.4%.

Turning to `CCOc1ccccc1CNC(=O)CCCn1c(=O)c2cccn2c2ccc(F)cc21`, the activation is inactive: -15.5%.

`COC(=O)c1sc2cccc(F)c2c1S(=O)(=O)NCc1ccccc1Cl`: the activation is inactive: -34%.

For the molecule `COc1ccc(NC(=O)CN(C)S(=O)(=O)c2ccc3nc(C)sc3c2)cc1Cl`, the activation was inactive: 29.3%.

`Cn1c(C(=O)NCc2ccccc2F)cc2cc(S(=O)(=O)N3CCCCC3)ccc21`: the activation was inactive: -13.4%.

As for `Cn1c(Oc2cccc(Cl)c2)nc2c1c(=O)n(Cc1ccccc1Cl)c(=O)n2C`, the activation was inactive: 7.94%.

For `COc1ccc(CCNCc2c(C(=O)O)c(C)n(Cc3cccc(C)c3)c2C)cc1OC`, the activation was inactive: -2.52%.

`Cc1cccc(Nc2nnc(-c3ccc(C)c(S(=O)(=O)N4CCOCC4)c3)c3ccccc23)c1`: the activation was inactive: -10.8%.

Turning to `CCCOc1ccc(C(=O)Nc2ccc(NC(=O)c3ccc(Br)cc3)cc2)cc1`, the activation is inactive: -9.55%.

Consider `N#C/C(=C/c1ccccc1Cl)c1nc(-c2cc3ccccc3oc2=O)cs1`, for which the activation was inactive: -4.47%.

With `COC(=O)c1cc(NC(=O)Cn2nc(-c3ccccc3)c3c(c2=O)CCCC3)cc(C(=O)OC)c1`, the activation is inactive: -34.4%.

For `COc1cc(C)ccc1OCCSc1nc2ccc(NC(=O)c3ccccc3F)cc2s1`, the activation is inactive: 3.32%.

As to `O=C(Cn1c(=O)n(CC2CCCO2)c(=O)c2ccccc21)Nc1ccc(F)cc1F` (configuration not stated), the activation was inactive: 15.2%.

For `Fc1ccc(NCc2ccccc2-c2nnc(-c3ccccc3Cl)o2)cc1Cl`, the activation was inactive: -14.7%.

Consider `CCc1ccc(-c2cc(C)no2)cc1S(=O)(=O)NCc1ccc(OC)cc1`, for which the activation was inactive: 12.8%.

With `Cc1cccc2cc(-c3nc(-c4cccs4)no3)c(=O)oc12`, the activation is inactive: -6.57%.

As to `Cc1sc2ncn(CC(=O)N3CCN(c4cccc(Cl)c4)CC3)c(=O)c2c1S(=O)(=O)N1CCC(C)CC1`, the activation was inactive: -9.99%.
